{
  "source": "PubChem BioAssay AID1814",
  "about": "(Broad Institute, 2009)",
  "note": "The whole screen tested about 300,000 compounds, of which about 22,000 (7.3%) were called active. The shares of active, inactive and inconclusive entries below differ from those in the screen. No stated cut-off is given here; in the data, active means activity score below about -60%; inconclusive means mostly about -28% to -61%; inactive means positive scores.",
  "data": [
    {"experiment": "Activators via SNCA 5'UTR binding, MLPCN (AID 1814)", "settings": "alpha-synuclein 5'UTR reporter, activators screen; active compounds read low; tested at 7.5 µM", "values": [
      {"smiles": "c1cncc(CSc2ccc(-c3ccc4c(c3)OCO4)nn2)c1", "activity score": "active: -109%"},
      {"smiles": "O=C(NCc1cccnc1)c1cn(-c2ccccc2)nc1-c1ccccc1", "activity score": "inconclusive: -54.4%"},
      {"smiles": "CC1=CC(C)(C)N(C(=O)CCl)c2ccccc21", "activity score": "inconclusive: -49.7%"},
      {"smiles": "COc1cc(/C=C/C(=O)c2ccc([N+](=O)[O-])o2)ccc1O", "activity score": "inactive: 67.1%"},
      {"smiles": "CCC(=O)NCCC(c1ccco1)c1ccccc1OC", "note": "(centres undefined)", "activity score": "inconclusive: -49.4%"},
      {"smiles": "COc1ccc(C(=O)CNc2ccc(C)cc2C)cc1", "activity score": "inconclusive: -55.9%"},
      {"smiles": "CNc1cc([N+](=O)[O-])ccc1N/C=C/C(=O)c1ccc2c(c1)OCO2", "activity score": "inconclusive: -55.3%"},
      {"smiles": "O=C(CN1C(=O)C2C3C=CC(C3)C2C1=O)Nc1nc(-c2ccccn2)cs1", "note": "(centres undefined)", "activity score": "inactive: 82.4%"},
      {"smiles": "O=C1C(Nc2ccc(O)cc2)=C/C(=N/S(=O)(=O)c2cccs2)c2ccccc21", "activity score": "inactive: 114%"},
      {"smiles": "O=CN1CCN(C(C(=O)NC2CCCC2)c2cc3c(cc2[N+](=O)[O-])OCO3)CC1", "note": "(centres undefined)", "activity score": "inconclusive: -44.5%"},
      {"smiles": "Cc1ccc2[nH]c3c(=O)n(CCN4CCOCC4)cnc3c2c1", "activity score": "inconclusive: -56.3%"},
      {"smiles": "COc1cc2[nH]c(=S)nc(NCc3cccs3)c2cc1OC", "activity score": "inconclusive: -54.2%"},
      {"smiles": "Cc1cc(C)c2sc(N(CCCN(C)C)C(=O)c3ccc(S(=O)(=O)N(C)C4CCCCC4)cc3)nc2c1", "activity score": "inactive: 53.3%"},
      {"smiles": "O=C(OCC(=O)N1CCCC1)c1cccs1", "activity score": "inconclusive: -52.2%"},
      {"smiles": "Nc1cccc2nc3ccccc3cc12", "activity score": "inactive: 101%"},
      {"smiles": "CCOc1ccc2nc(N3CCCC(C(=O)NCCCN4C(C)CCCC4C)C3)sc2c1", "note": "(centres undefined)", "activity score": "inconclusive: -56.3%"},
      {"smiles": "CC(NC(=O)Cn1ncc(Cl)c(Cl)c1=O)C12CC3CC(CC(C3)C1)C2", "note": "(centres undefined)", "activity score": "inactive: 88%"},
      {"smiles": "O=C(N/N=C/c1c[nH]c2ccccc12)c1ccccc1O", "activity score": "inconclusive: -51.6%"},
      {"smiles": "Cc1cc(C)c2c(N)c(C(=O)c3ccc(Cl)cc3)sc2n1", "activity score": "inconclusive: -56.4%"},
      {"smiles": "N#CC1=C(SCC(=O)c2ccc(Cl)cc2)NC2=C(C(=O)CCC2)C1c1ccco1", "note": "(centres undefined)", "activity score": "active: -173%"},
      {"smiles": "COc1ccccc1OCCC(=O)OCC(=O)Nc1cc(S(=O)(=O)N2CCOCC2)ccc1Cl", "activity score": "inconclusive: -43.1%"},
      {"smiles": "Cc1ccc(C)c(S(=O)(=O)N2CCN(Cc3ccc(O)c4ncccc34)CC2)c1", "activity score": "inactive: 73.9%"},
      {"smiles": "Cc1nnc(-c2ccccc2)c(=O)n1/N=C/c1c(O)ccc2ccccc12", "activity score": "inactive: 83.1%"},
      {"smiles": "CCOc1ccc(C(=O)COC(=O)Cc2n[nH]c(=O)c3ccccc23)cc1", "activity score": "active: -87.2%"},
      {"smiles": "O=C(Nc1ccc(S(=O)(=O)N2CCCCCC2)cc1)c1ccco1", "activity score": "inconclusive: -58.1%"},
      {"smiles": "COc1cccc(NC(=O)c2cccnc2)c1", "activity score": "inconclusive: -51.1%"},
      {"smiles": "O=C(/C=C/Nc1ccc(Br)cc1F)c1ccccc1", "activity score": "inactive: 77.5%"},
      {"smiles": "N#C/C(=C\\c1cn(Cc2cccc(F)c2)c2ccccc12)C(=O)NCc1ccco1", "activity score": "inactive: 64.5%"},
      {"smiles": "N#Cc1sc(NCc2ccccc2)nc1Cl", "activity score": "inconclusive: -50.2%"},
      {"smiles": "Cc1ccc(N=Nc2cc(C)ccc2N)cc1", "activity score": "inactive: 61.3%"},
      {"smiles": "CCN(CC)S(=O)(=O)c1ccc(OC)c(NC(=O)c2cc([N+](=O)[O-])ccc2Cl)c1", "activity score": "inconclusive: -53%"},
      {"smiles": "O=C(Nc1ccn(-c2ccccc2)n1)c1ccccc1Br", "activity score": "active: -161%"},
      {"smiles": "COc1ccc(NC(=O)/C(C#N)=C\\c2ccc(Br)o2)cc1", "activity score": "active: -114%"},
      {"smiles": "Cc1cc(OCC(=O)O/N=C(\\N)c2ccccc2)cc(C)c1Cl", "activity score": "inconclusive: -40.8%"},
      {"smiles": "CCCNC(=S)Nc1ccc(Cl)cc1Cl", "activity score": "inconclusive: -42.6%"},
      {"smiles": "CC(=O)N1CCN(c2ccc(NC(=O)c3ccc(Br)o3)cc2Cl)CC1", "activity score": "inconclusive: -51.4%"},
      {"smiles": "O=C(Nc1ccccc1)Nc1ccc(Nc2ccccc2)cc1", "activity score": "active: -111%"},
      {"smiles": "CC1CCN(C2=C(NS(=O)(=O)c3ccc(Cl)cc3)C(=O)c3ccccc3C2=O)CC1", "activity score": "inconclusive: -47.7%"},
      {"smiles": "CCN1C(=O)c2cccc3c(S(=O)(=O)NCc4ccco4)ccc1c23", "activity score": "inconclusive: -59.1%"},
      {"smiles": "CCOc1ccc2[nH]c3c(NCCN(CC)CC)ncnc3c2c1", "activity score": "inconclusive: -51%"},
      {"smiles": "Cc1ccc(NS(=O)(=O)c2ccccc2[N+](=O)[O-])cc1C", "activity score": "inconclusive: -41%"},
      {"smiles": "Cc1ccnc(NC(=O)c2ccoc2C)c1", "activity score": "active: -147%"},
      {"smiles": "O=C1OCCC1Sc1nnc(-c2ccc(Cl)cc2Cl)o1", "note": "(centres undefined)", "activity score": "inactive: 89.5%"},
      {"smiles": "Cc1cccc(OCc2n(CC(=O)OC3CC(C)CCC3C(C)C)c3ccccc3[n+]2C)c1", "note": "(centres undefined)", "activity score": "inactive: 59.6%"},
      {"smiles": "CCOC(=O)c1ccc(NC(=O)Nc2ccc3c4c(cccc24)C(=O)N3CC)cc1", "activity score": "inconclusive: -18.5%"},
      {"smiles": "COc1cccc(N2C(=O)CC(N3CCc4ccccc43)C2=O)c1", "note": "(centres undefined)", "activity score": "inconclusive: -47.3%"},
      {"smiles": "Cc1ccc(/C=N/NC(=O)c2ccccn2)o1", "activity score": "active: -74.3%"},
      {"smiles": "Cc1ccc(N2C(=O)CC(Sc3nc(C)cc(C)n3)C2=O)cc1", "note": "(centres undefined)", "activity score": "active: -62.7%"},
      {"smiles": "Cc1cc(C)n(-c2ccc(C(=O)Nc3nc4ccccc4s3)cc2)n1", "activity score": "active: -97.3%"},
      {"smiles": "COc1ccc2[nH]c3c(N4CCC(O)(c5cccc(C(F)(F)F)c5)CC4)ncnc3c2c1", "activity score": "inconclusive: -54.5%"},
      {"smiles": "CN(C(=O)COc1ccc(Cl)cc1Br)C1CCCCC1", "activity score": "inconclusive: -56.3%"},
      {"smiles": "Cc1cc(C)c(S(=O)(=O)Nc2cc(SCC(=O)O)c(O)c3ccccc23)cc1C", "activity score": "inactive: 66.8%"},
      {"smiles": "COc1ccc(N2CCN(C(c3cccs3)C(C)NS(=O)(=O)c3ccccc3)CC2)cc1", "note": "(centres undefined)", "activity score": "inconclusive: -47.9%"},
      {"smiles": "CCOC(=O)c1ccc(NC(=O)C2(c3ccc(OC)cc3)CCCC2)cc1", "activity score": "inconclusive: -45.1%"},
      {"smiles": "O=C(Nc1nc2ccccc2[nH]1)c1ccc(Cl)cc1", "activity score": "inactive: 65.9%"},
      {"smiles": "Cc1ccc(C(=O)NCCc2cccc(Cl)c2)cc1[N+](=O)[O-]", "activity score": "inconclusive: -43.7%"},
      {"smiles": "CCOc1ccc(S(=O)(=O)Nc2cccc(-c3ccc(N4CCCCCC4)nn3)c2)cc1", "activity score": "inconclusive: -57.3%"},
      {"smiles": "Cc1ccc(S(=O)(=O)N(C)CC(=O)N/N=C/c2ccc(C)o2)cc1", "activity score": "inactive: 46.5%"},
      {"smiles": "CC(=O)c1sc(NC(=O)c2ccc(F)c(F)c2)nc1C", "activity score": "active: -159%"}
    ]}
  ]
}
